Data: PubChem BioAssay AID1030 (National Center for Advancing Translational Sciences (NCATS), 2008)
Hit rate of the full screen: of about 220,000 compounds, about 16,000 (7.3%) were called active. Inconclusive means that the source gave no clear call. Such entries were picked first, then a sample of the others. Calls follow the shape of the dose curve; as a rule, active = well fitted inhibition curve with a large enough effect (not every such curve was filed as active); inconclusive = small, poorly fitted or top-dose-only effect, or another doubt; inactive = no such curve, though single readings can be large or run the other way. Potencies of inconclusive entries are left out as doubtful fits.

The compounds below were run against Aldehyde dehydrogenase 1A1 (Homo sapiens) (UniProt P00352) (assay: qHTS Assay for Inhibitors of Aldehyde Dehydrogenase 1 (ALDH1A1)). Details: Purified ALDH1A1, NADH fluorescence, propionaldehyde substrate; series mostly up to 75.3 µM.
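For activity, negative = inhibition in this document: plate controls were no enzyme wells and a reference inhibitor.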
Potency is read from the fitted curve at half-maximal effect; tags tell the direction and shape of the fitted curve.

Sequence of UniProt P00352 (P00352 whole entry, looked up): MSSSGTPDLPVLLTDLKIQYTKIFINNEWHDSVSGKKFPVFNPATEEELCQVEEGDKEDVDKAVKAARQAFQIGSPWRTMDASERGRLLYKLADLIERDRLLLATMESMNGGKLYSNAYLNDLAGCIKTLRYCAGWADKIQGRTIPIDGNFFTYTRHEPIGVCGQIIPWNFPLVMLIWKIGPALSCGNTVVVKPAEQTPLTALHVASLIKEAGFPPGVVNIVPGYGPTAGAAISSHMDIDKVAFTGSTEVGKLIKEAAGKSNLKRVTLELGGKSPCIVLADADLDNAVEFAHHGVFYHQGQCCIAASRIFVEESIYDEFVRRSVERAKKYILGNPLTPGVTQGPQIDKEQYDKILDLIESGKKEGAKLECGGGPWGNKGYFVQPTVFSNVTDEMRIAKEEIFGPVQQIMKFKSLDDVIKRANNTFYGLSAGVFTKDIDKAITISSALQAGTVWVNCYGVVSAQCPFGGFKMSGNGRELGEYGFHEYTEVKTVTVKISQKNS

Structure (SMILES) | Potency | activity, negative = inhibition
CCN=C(Nc1ccc2c(c1)OCO2)SC1CC(=O)N(c2ccc(OC)cc2)C1=O (configuration not stated) | inconclusive [inhibitor, partial curve] | –
COc1ccccc1CN1CCCC2(CCN(C(=O)c3ccco3)CC2)C1 | inconclusive [inhibitor, single point] | –
CCOC(=O)c1c(NC(=O)c2ccccc2C)sc2c1CC(C)(C)OC2 | inconclusive [inhibitor, partial curve] | –
O=C(O)C12CC3CC(C1)CC(n1cnc(Cl)n1)(C3)C2 | inactive | –
Cc1c(N=C2C=CC(=O)c3ccccc32)c(=O)n(-c2ccccc2)n1C | inconclusive [inhibitor, single point] | –
N#C/C(=C\c1c(N2CCOCC2)nc2ccccn2c1=O)S(=O)(=O)c1ccccc1 | active: 12.6 µM | –
COP(=O)(OC)c1nc(-c2ccccc2)oc1N1CCOCC1 | inconclusive [inhibitor, partial curve] | –
O=C(NC(=S)NCc1ccccc1)c1ccccc1 | inconclusive [inhibitor, single point] | –
COc1ccc(-c2ccc(C#N)c(OC(=O)c3c(Cl)cccc3Cl)n2)cc1 | inconclusive [inhibitor, partial curve] | –
COc1cc2c(cc1OC)-c1cc(Nc3ccc4c(c3)OCCO4)nc(=O)n1CC2 | inconclusive [inhibitor, partial curve] | –
Cn1ncc(N2CCN(S(=O)(=O)c3ccc(Br)cc3)CC2)c(Cl)c1=O | inactive | –
CC(=O)N[C@@H](Cc1c[nH]c2ccccc12)C(=O)OCC(=O)NCc1ccc2c(c1)OCO2 | active: 5.01 µM | –
COc1cc2[nH]c(=S)n(Cc3ccc(F)cc3)c(=O)c2cc1OC | inactive | –
Cc1cc(=O)oc2cc(NC(=S)NCc3cccnc3)ccc12 | inconclusive [inhibitor, partial curve] | –
COc1cc(SC)ccc1C(=O)OC(C)C(=O)NC1CCCC1 (configuration not stated) | inactive | –
CCN1C(=O)C(CC(=O)Nc2c(C)cccc2C)SC1=Nc1ccc(S(N)(=O)=O)cc1 (configuration not stated) | inconclusive [inhibitor, single point] | –
COc1ccccc1-n1cnnc1SCc1csc(-c2ccccc2)n1 | inconclusive [inhibitor, partial curve] | –
O=c1c(-n2cncn2)c[nH]n1-c1cccc(Cl)n1 | inconclusive [inhibitor, single point] | –
Cc1cnc(NC(=O)CSc2nnc(CNc3ccc(F)cc3)n2CC2CCCO2)s1 (configuration not stated) | inconclusive [inhibitor, single point] | –
Cc1ccc(C(=O)CSc2ncnc3ccccc23)o1 | inconclusive [inhibitor, single point] | –
FC(F)(F)c1cccc(NC(=S)Nc2cccc(Cl)c2)c1 | inconclusive [inhibitor, single point] | –
COc1ccc(-n2c(CCc3ccccc3)nnc2SCC(=O)c2ccccc2)cc1 | inconclusive [inhibitor, single point] | –
O=C(O)C1C2C=CC(C2)C1C(=O)Nc1cccc(F)c1 (configuration not stated) | inactive | –
CS(=O)c1ccccc1COC(=O)Nc1ccc(Cl)cc1 (configuration not stated) | inconclusive [inhibitor, single point] | –

Structure (SMILES) | Potency | activity, negative = inhibition
Cc1cccc(C)c1OCC(=O)NCC1CCCO1 (configuration not stated) | inconclusive [inhibitor, single point] | –
CCc1nnc(NC(=O)CSc2nc(SC)ns2)s1 | inactive | –
O=C1CSC(c2nn(-c3ccccc3)cc2-c2cc3ccccc3oc2=O)N1Cc1ccco1 (configuration not stated) | inconclusive [inhibitor, single point] | –
CCC1NC(=S)N(C2CCCCC2)C1=O (configuration not stated) | inconclusive [inhibitor, single point] | –
Cc1nc(C)c(C(=O)C2=C(O)C(=O)N(CCCN(C)C)C2c2ccco2)s1 (configuration not stated) | inconclusive [inhibitor, single point] | –
CSc1nnnn1-c1ccc(Cl)cc1 | inactive | –
O=C(COC(=O)c1ccc(Br)o1)Nc1nc2ccccc2s1 | inactive | –
N#Cc1c(N2CCOCC2)nc(-c2ccco2)c2c1CCCC2 | inconclusive [inhibitor, partial curve] | –
CCOc1ccc(-n2c(=O)cc(N3CCN(c4ccccc4)CC3)[nH]c2=O)cc1 | inconclusive [inhibitor, partial curve] | –
C/C(=N\NC(=O)c1cc(C(C)(C)C)[nH]n1)C12CC3CC(CC(C3)C1)C2 | inactive | –
Cc1ccc(NC(=S)C2=C(O)c3sccc3N(C)S2(=O)=O)cc1 | active: 7.94 µM | –
Cc1cc(Br)c(OCc2ccc(C(=O)N/N=C3\CC4CC=CC34)cc2)c(Br)c1 (configuration not stated) | active: 8.91 µM | –
N#Cc1nc(-c2ccccc2Cl)oc1NCc1ccco1 | inconclusive [inhibitor, single point] | –
Cc1cc[n+](-c2[nH]c(=O)sc2/C=N/N=C(\[O-])c2ccccc2)cc1 | active: 12.6 µM | –
Cc1ccccc1-n1c(C)nnc1SCC(=O)NCC1CCCO1 (configuration not stated) | inactive | –
O=C(c1ccc(Cl)cc1)N1C2C=CC(C2)C1(C(F)(F)F)C(F)(F)F (configuration not stated) | inactive | –
COc1ccc([C@@H](C)c2cc3c(cc2O)OCO3)cc1 | – | inactive: 2.64% [at 13.5 µM]
CCOC(=O)C1=C(C)NC(=O)NC1c1c(C)nn(-c2ccccc2)c1Cl (configuration not stated) | inconclusive [inhibitor, single point] | –
CC(C)C[C@H](N)c1nnc(S(=O)(=O)Cc2ccc(F)cc2)o1 | active: 1.58 µM | –
CCc1cc(C(=O)N2CCCC(C(=O)c3cccc(OC(C)C)c3)C2)n(C)n1 (configuration not stated) | inconclusive [inhibitor, single point] | –
CCCNC(=O)CSC1=N/C(=C/c2ccc(F)cc2)C(=O)N1CC | inconclusive [inhibitor, single point] | –
N#Cc1c(-c2ccco2)cc(-c2ccc(F)cc2)nc1N | inconclusive [inhibitor, partial curve] | –
CCOC(=O)C1=NNC(C(=O)c2ccc(Cl)cc2)C1c1ccc(OC)cc1 (configuration not stated) | inconclusive [inhibitor, partial curve] | –
